Experimental data published in the supplement of paper PMC11417369.
Some of the results follow.

system: PfAP2-HC AP2 domain (GST-tagged); assay: gcPBM binding intensity (ln(normalized median fluorescence intensity)); higher = stronger DNA binding
How it was run: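 Each value is the highest Masliner-normalised natural-log median intensity across replicate spots of either orientation of a probe. The probes were primer-extended double-stranded 36-bp intergenic genomic sequences on an Agilent 4 × 180k array, alongside negative controls, exposed for 1 h to GST-tagged P. falciparum DNA-binding domains expressed in E. coli. Bound protein was picked up with Alexa488 anti-GST antibody and scanned at 488 nm.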

Sequence	gcPBM binding intensity (ln)
CTTAAAAAAACCTTAACACACATAAACTATAATTTA [CACACA_site3055]	9.62
ATATTATATATATGTGCACACAAAAGATATATATAT [CACACA_site2125]	10.3
ATAAGCAATAAAAAAACATGCATATTATTATCAACA [TGCATGCA_site1027]	9.82
TTTAAAAATAAAAGTACACACATAAACATATTGCAC [CACACA_site6784]	10
AAGTTAACACAACAGGTGCAAGAAAAGTTTTTAATG	9.7
ATCAAGCACGGACACACACACACACCCAGACCCCCA [CACACA_site4360]	10.6
TCTTTAATATATAGTGCATGTAAATTTTACAATAAT [TGCATGCA_site242]	9.49
TATGGTATATACAACACACACACATATGTATATATA [CACACA_site927]	10.9
AGTTAATGTTTATGTACACACGGTGGGTATATATTT [CACACA_site5785]	9.85
GATCTACATGAAAGGACACACAAATATATATATATA [CACACA_site84]	10.1
ATAAATATGGAGCACACACACATAAACATACCTATA [CACACA_site6336]	10.8
TTAAAAATGATTGAATGTACAGATTAATATAATTTT [XGTACX_site7394]	9.51
TAATTTTTGAAACACACACACATATATATATATATA [CACACA_site94]	10.5
ATAATAAGGTTAAGCACACATATTACAGATATAACT [CACACA_site5791]	9.88
AAATATTATGTGGCAAGTACATAAAGAAAATGCTTA [XGTACX_site3356]	9.65
AATAATAATAATAATAGTACATATTATGAATATGAT [XGTACX_site5730]	9.82
AAAAAAAAATATATATAAAATTAAAAAATGTAATAT [GTGCAC_negctrl_site581]	9.61
TTATATCCCGTCCTTTATTAAAAAAATTTTTTTTCT [TGCATGCA_negctrl_site582]	9.58
ATTAAAAAAAAAAGTATACACACTTCTTAATGTCAA [CACACA_site1244]	9.54
ATGGGTTGTTCAAATAGTACATATGTAGCCCACCAT [XGTACX_site3735]	9.65
TTTAAATATATATTTAGTACTTATTCTTAAAATTTT [XGTACX_site624]	9.51
TTTTTTTTTTTTTGTGCATGTAGATTTATTGTTATA [TGCATGCA_site582]	9.61
AAAAAAGAATAGCACACACACATATATAAATATAAA [CACACA_site4518]	10.5

Sequence	gcPBM binding intensity (ln)
GTAGAGGATTAAGAATGTACACATAAATACATATTT [XGTACX_site8874]	9.67
AATTATACATACATATATATATTTATATATATATAT [GTGCAC_negctrl_site462]	9.83
GTTACATACAGATACACACACATATATATATATATA [CACACA_site4652]	10.7
TTTTTTTTTTTTTTAATTAATTACCTTTGAATGTGT [CACACA_negctrl_site393]	9.53
TAATAATTTTATAAAGTGCATAAAAATAAAAATTTT	9.51
AACAAATAAACAAAATTGGAAAATAAAAATATCAAA [CACACA_negctrl_site1125]	9.73
TCGTATATGGATTTTGCACACAATTTTAATTTAAAT [CACACA_site4635]	9.91
ATGATTTGTCTGAAATGTACATATATATATATATAT [XGTACX_site5247]	9.7
GAAAAAATATATAAATGTACATATAATAATATCATA [XGTACX_site6788]	9.69
ATATATATTTTATTATGTACATATAAATATTACACA [XGTACX_site4062]	9.57
ATTATTTTTTTATGTTGTACATAATATTTTTTAAAA [XGTACX_site1666]	9.61
ATATATATGGATGGACGTACGTATGTATGTAATTTC [XGTACX_site4135]	9.97
TTCCAACATTGTTTTTGTACATAATTAACTGTTATT [XGTACX_site5224]	9.99
CTTAAAAATAACTGCACACAAAAATAAATACCTTAT [CACACA_site2793]	10
TAATATTTATAAAATAGTACACAGAAAAAGCATTTT [XGTACX_site8948]	9.67
TAATAATGCAACCTCTGTACACAACATTATATCCAT [XGTACX_site7596]	9.76
AAAAAAAAATTTTTAAAATTTAGAAAATTTAAAAAA [GTGCAC_negctrl_site649]	9.2
TATATATAAGCGTGTACACATTCTGAGTGTTGTATA [CACACA_site4502]	9.73
ATATTTAATGTTAATTGTACATATTATATATATATA [XGTACX_site6095]	9.73
GATTATACAAAATATACACACGTGTAGACAAATATT [CACACA_site4785]	9.98
ATAATATTATTATAATGTACATATTTCGATATAAAT [XGTACX_site8808]	9.55
AAAAAAATATATATTACACACATATATACCTATATA [CACACA_site5688]	9.88
ATATATATTAATAGGTGTACATATAAAGTGTTATGT [XGTACX_site5464]	9.79

Sequence	gcPBM binding intensity (ln)
TATTGAAGTTATAAAGTGCAGATAAATATGAGTTAT [GTGCAC_site9945]	9.79
ACAAAAAATAATCAAAATGTATATATATAATATAAT [XGTACX_negctrl_site593]	9.8
AAATGCCATATAATTTTTCTTAAACATAATTGTATA [CACACA_negctrl_site1665]	9.49
ATTGTCTTCTCATATACACACTTTTATGACTATCTT [CACACA_site5696]	9.97
TGTGTAATTATATATAAGGAGAAAGAATTCATTTTT [CACACA_negctrl_site670]	9.56
ATTATCCATGCATTTACACACACACCCAAAAAAATT [CACACA_site4101]	10.3
AAAGGGGCATATATATGTACATATTATATATTTTGA [XGTACX_site2436]	9.56
TTATATATAAACATAAAAAGAAATATATTATGTATA [CACACA_negctrl_site667]	9.53
AAAGTCTCATTAAAATGTACAAAATTTTCAGCTGTA [XGTACX_site6296]	9.45
TATGTGAATATAATCACACACAATACGGAAACCCAC [CACACA_site2725]	9.99
TAATTTTTAATTGTAGCATGCAGTATTTTTAAATAT [TGCATGCA_site140]	9.37
AATACATTGTCAAATTGTACAAATTATAGAACTATT [XGTACX_site2222]	9.59
TGTTTTTATATATATGCACACAATGTACAAGTATAC [CACACA_site3529]	9.86
AATATATATATATATACACACACACCGATATATATA [CACACA_site8158]	11.2
TAACAATTAATAAAAGGTACACTTGAATATGCACCA [XGTACX_site2717]	9.42
TTAATATTTAGACATGCATGCTAATTACTATATATA [TGCATGCA_site27]	9.8
AATTTTAAGAGCTATACATGCACTTCATAAAAAGTG [TGCATGCA_site180]	9.41
ATAATAAAAAAAAATGCACACATATATATATATATA [CACACA_site8766]	9.8
GTAGAGCATAATAAAACACACACATACATACATATA [CACACA_site8217]	10.4
ATGGACATCTATTGTTGTACACATTTTCCCATAACA [XGTACX_site5429]	9.62
TTTCAAAAATGAGTTACACACACACGGATATAAATA [CACACA_site7116]	10
GAATATAAAATATATATATATATATATATATATATA [GTGCAC_negctrl_site425]	9.4
TTATAAATATAAAAATGTACAGAAAAAAAAAATAAA [XGTACX_site863]	9.76

Sequence	gcPBM binding intensity (ln)
ATAGAACTATATTGCACACATAATATATATATATAT [CACACA_site3189]	9.91
GTAAAAAATATGACAAGTACAAGAAAAGAAAAAAGT [XGTACX_site7906]	10
AAAAGATTTATACATACACACATATTATATTCACAT [CACACA_site3713]	10
TTATAATATATATACAGTACATATATAAAATAATAT [XGTACX_site5917]	9.58
TTTTCTTGGTTCAGTGTGCACTTATATATATATATA	10
TAATATAAAGAAAAGGAACACACAAATATATATATA [CACACA_site8049]	9.83
TTATTTTATAATAAAAGTACACAAAAAAAAAAAAAA [XGTACX_site7668]	9.36
ATATATATAATATGCGGTACACATTAATTAAATCAT [XGTACX_site5702]	9.82
TTATTTCTCTTTTCAGTGCATTTTATAACAAAAAAA [GTGCAC_site9930]	9.2
TATTTATTGTGATACTTATATTACTTAATGATTAAA [CACACA_negctrl_site676]	9.41
TAATTATGCAGACACACACACACACCCAACTAAAAA [CACACA_site2569]	10.4
CTATTTCATGGACACACACACACAAACAAACATATA [CACACA_site4696]	11.1
ATATATTATATAAAGTGTACAAAAAAAATATATAAA [XGTACX_site8065]	9.88
TTATTGCATTGTTTTTATAAAAAAAAAAAAAAAATT [XGTACX_negctrl_site104]	9.48
ATATATATTTTATTCACACATAAGATTATAAAACAT [CACACA_site5369]	9.53
TATGATATAATTATGTGTACACAATTTTTTTTTTTT [XGTACX_site1084]	9.74
TGTGTTCAGTATTGCACACACACAACAAAATAAAAA [CACACA_site8017]	10.3
ATTAATAAGAAATATACACACATGGATAAATACATA [CACACA_site1872]	9.91
TTTCTTGCTACATGAAGTACACTTTCTATGACTCGT [XGTACX_site5583]	9.55
TTATTATAAATGTTTTGTACGTACATCCGAAAATAA [XGTACX_site2175]	9.48
